# Experimental data published in the supplement of paper PMC7826260.
# The other results are listed elsewhere or left out. Viral Rep nickase domains cut single-stranded DNA in vitro (1 h at 37 °C, 3 µM enzyme); the outer parts of the 90-letter strands are left off. The score is log2 (uncut reads / reads without enzyme); the lower, the more was cut; hits are not called. Reads are scaled to the total; where an enzyme cuts many sequences, the uncut ones exceed 0.
# Test system: T1, Rep nickase domain of tomato golden mosaic virus
# T1 sequence (residues 1-124 of Rep, tag left off): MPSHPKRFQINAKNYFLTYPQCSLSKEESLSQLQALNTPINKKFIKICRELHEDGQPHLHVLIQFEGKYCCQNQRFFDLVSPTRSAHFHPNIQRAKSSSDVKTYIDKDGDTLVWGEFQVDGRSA
# Experiment: uncleaved DNA left, log2 of reads against the no-enzyme library (log2 ratio); higher = less cleavage (more negative = more Rep cleavage of the k-mer); sequences stand for … in CTCGTCCG…ACCGGAGA
# Experimental: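 A pool of 90-nt single-stranded DNAs with seven random bases just before the constant AC of the nick site (name = the seven bases) was cut by 3 µM recombinant His6-SUMO-tagged Rep nickase domain (300 nM DNA, 50 mM HEPES pH 8.0, 50 mM NaCl, 1 mM MnCl2, 1 h, 37 °C, three replicates). Uncut DNA was amplified and sequenced.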
row,Sequence,uncleaved DNA left (log2)
1,GAGCGTC,-0.00669
2,GCTGTCT,0.0079
3,ACTTCCG,0.0123
4,TATCACA,-0.0438
5,CCGAGTG,0.0715
6,GGCATGA,0.0436
7,CTTAGCC,-0.0828
8,AGTCATC,-0.0374
9,GATAAGG,0.0921
10,GACCACC,-0.0329
11,ACTTGTG,-0.0637
12,CGAACCA,-0.0713
13,TAAGATC,-0.276
14,ATAGTAC,0.0972
15,AAACGTT,-0.0449
16,CGTTTGT,-0.0286
17,TGTCCTC,-0.0132
18,TCGGACC,0.146
19,GGACAGT,-0.065
20,TATCGCC,-0.0836

row,Sequence,uncleaved DNA left (log2)
1,ACCCAAG,0.122
2,TGAACGC,-0.0368
3,GCTATGC,0.00976
4,ATACCCA,0.0976
5,TACGGAA,0.185
6,CATTTGT,-0.148
7,GGCTGGC,0.206
8,TTCAGCC,-0.0993
9,CGGGATC,-0.0567
10,GCGTCTG,0.219
11,CTGATGC,-0.0587
12,GCGACTG,0.0284
13,CTACACT,-0.0917
14,TTCACAT,-0.0309
15,TCTTATA,0.0448
16,TTCAGAG,0.142
17,CGTATAG,-0.0263
18,ACTGGCT,0.167
19,AGTAACT,0.161
20,TTACAGA,-0.0385
